Source: the supplement of paper PMC4967469
A lower IC50 marks a more sensitive line; where the fit passes the top or lowest dose, that dose stands as a limit. The AUC spans the tested range (256-fold, ending at the top dose) of the same fit; values near 1 show little effect. For some of these results: An inferred top dose comes from the curve model; the source does not state it.

Columns and labels:
Experiment in all cases: Viability of human cancer cell lines after 72 h of drug (GDSC screen)
Gefitinib = compound: COc1cc2ncnc(Nc3ccc(F)c(Cl)c3)c2cc1OCCCN1CCOCC1 [Gefitinib]; conditions: top dose 0.5 µM
Protocol: (§1)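 Human cancer cell lines in 384-well plates, medium with 10% serum, drug for 72 h over a 256-fold dose range (nine 2-fold or five 4-fold steps up to the top dose). Adherent lines were fixed and stained with the nucleic acid dye Syto60, suspension lines read with resazurin; signal relative to control wells, capped at 0 and 100%. One two-parameter sigmoid per drug and line, fitted in a mixed model over all curves with the slope shared within a line.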

Phenformin = compound: N=C(N)NC(=N)NCCc1ccccc1 [Phenformin]; conditions: top dose 4000 µM; top dose inferred
Protocol: as §1

Vinorelbine = compound: CCC1=C[C@@H]2CN(C1)Cc1c([nH]c3ccccc13)[C@@](C(=O)OC)(c1cc3c(cc1OC)N(C)[C@H]1[C@@](O)(C(=O)OC)[C@H](OC(C)=O)[C@]4(CC)C=CCN5CC[C@]31[C@@H]54)C2 [Vinorelbine]; conditions: top dose 0.064 µM; top dose inferred
Protocol: as §1

QL-XI-92 = compound: C=CC(=O)Nc1cc(NC(=O)c2ccc(C)c(NC(=O)c3ccno3)c2)cc(C(F)(F)F)c1 [QL-XI-92]; conditions: top dose 10.24 µM; top dose inferred
Protocol: as §1

EHT 1864 = compound: O=c1cc(CN2CCOCC2)occ1OCCCCCSc1ccnc2cc(C(F)(F)F)ccc12 [EHT 1864]; conditions: top dose 10 µM; top dose inferred
Protocol: as §1

WHI-P97 = compound: COc1cc2ncnc(Nc3cc(Br)c(O)c(Br)c3)c2cc1OC [WHI-P97]; conditions: top dose 10.24 µM; top dose inferred
Protocol: as §1

XL-184 = compound: COc1cc2nccc(Oc3ccc(NC(=O)C4(C(=O)Nc5ccc(F)cc5)CC4)cc3)c2cc1OC [XL-184]; conditions: top dose 5.12 µM; top dose inferred
Protocol: as §1

AG-014699 = compound: CNCc1ccc(-c2[nH]c3cc(F)cc4c3c2CCNC4=O)cc1 [AG-014699]; conditions: top dose 5 µM; top dose inferred
Protocol: as §1

FMK = compound: Cc1ccc(-c2c(C(=O)CF)n(CCCO)c3ncnc(N)c23)cc1 [FMK]; conditions: top dose inferred
Protocol: as §1

Row | Cell Line | AUC (Gefitinib) | IC50 (Gefitinib) | AUC (Phenformin) | IC50 (Phenformin) | AUC (Vinorelbine) | IC50 (Vinorelbine) | AUC (QL-XI-92) | IC50 (QL-XI-92) | AUC (EHT 1864) | IC50 (EHT 1864) | AUC (WHI-P97) | IC50 (WHI-P97) | AUC (XL-184) | IC50 (XL-184) | AUC (AG-014699) | IC50 (AG-014699) | AUC (FMK) | IC50 (FMK)
1 | JHH-6 (liver, adherent) | 0.987 | > 0.5 µM | 0.952 | > 4000 µM | 0.839 | 0.0447 µM | 0.985 | > 10.2 µM | 0.882 | > 10 µM | 0.978 | > 10.2 µM | 0.963 | > 5.12 µM | 0.93 | > 5 µM |  | 
2 | KYSE-70 (oesophagus, adherent) | 0.959 | > 0.5 µM | 0.89 | > 4000 µM | 0.679 | 0.0133 µM | 0.977 | > 10.2 µM | 0.962 | > 10 µM | 0.974 | > 10.2 µM | 0.984 | > 5.12 µM | 0.977 | > 5 µM |  | 
3 | M14 (melanoma, adherent) | 0.984 | > 0.5 µM | 0.611 | 513 µM | 0.745 |  | 0.978 | > 10.2 µM | 0.975 | > 10 µM | 0.94 | > 10.2 µM | 0.874 | > 5.12 µM | 0.974 | > 5 µM |  | 
4 | MDA-MB-175-VII (breast, adherent) | 0.873 | > 0.5 µM | 0.845 | 3340 µM | 0.921 | > 0.064 µM | 0.941 | > 10.2 µM | 0.923 | > 10 µM | 0.927 | > 10.2 µM | 0.978 | > 5.12 µM | 0.988 | > 5 µM |  | 
5 | MKN45 (stomach, adherent) | 0.979 | > 0.5 µM | 0.877 | > 4000 µM | 0.416 | 0.00221 µM | 0.978 | > 10.2 µM | 0.956 | > 10 µM | 0.981 | > 10.2 µM |  |  | 0.953 | > 5 µM |  | 
6 | Mewo (melanoma, adherent) | 0.942 | > 0.5 µM | 0.665 | 792 µM | 0.705 | 0.0171 µM | 0.981 | > 10.2 µM | 0.912 | > 10 µM | 0.984 | > 10.2 µM | 0.982 | > 5.12 µM | 0.972 | > 5 µM |  | 
7 | NCI-H441 (lung adenocarcinoma, adherent) | 0.946 | > 0.5 µM | 0.783 | 2460 µM | 0.729 | 0.0238 µM | 0.975 | > 10.2 µM | 0.972 | > 10 µM | 0.965 | > 10.2 µM | 0.977 | > 5.12 µM | 0.973 | > 5 µM |  | 
8 | NCI-H1734 (lung adenocarcinoma, adherent) | 0.967 | > 0.5 µM | 0.634 | 611 µM | 0.689 | 0.0144 µM | 0.971 | > 10.2 µM | 0.985 | > 10 µM | 0.982 | > 10.2 µM | 0.958 | > 5.12 µM | 0.983 | > 5 µM |  | 
9 | NCI-H2029 (small cell lung carcinoma, adherent) | 0.988 | > 0.5 µM | 0.486 | 230 µM | 0.889 | 0.0604 µM | 0.974 | > 10.2 µM | 0.991 | > 10 µM | 0.984 | > 10.2 µM | 0.992 | > 5.12 µM | 0.983 | > 5 µM |  | 
10 | PA-TU-8988T (pancreas, adherent) | 0.977 | > 0.5 µM | 0.813 | 2160 µM | 0.664 | 0.0114 µM | 0.979 | > 10.2 µM | 0.924 | > 10 µM | 0.978 | > 10.2 µM | 0.951 | > 5.12 µM | 0.957 | > 5 µM |  | 
11 | PANC-08-13 (pancreas, adherent) | 0.965 | > 0.5 µM | 0.722 | 1290 µM | 0.815 | 0.0483 µM | 0.964 | > 10.2 µM | 0.954 | > 10 µM | 0.947 | > 10.2 µM | 0.849 | > 5.12 µM | 0.953 | > 5 µM |  | 
12 | RMG-I (ovary, adherent) | 0.954 | > 0.5 µM | 0.722 | 1200 µM | 0.869 | > 0.064 µM | 0.945 | > 10.2 µM |  |  | 0.853 | 10.2 µM | 0.913 | > 5.12 µM |  |  |  | 
13 | SCC-4 (head and neck, adherent) | 0.891 | > 0.5 µM | 0.822 | 2930 µM | 0.446 | 0.00277 µM | 0.984 | > 10.2 µM | 0.915 | > 10 µM | 0.961 | > 10.2 µM | 0.965 | > 5.12 µM | 0.924 | > 5 µM |  | 
14 | SK-MEL-24 (melanoma, adherent) | 0.963 | > 0.5 µM | 0.727 | 1290 µM | 0.978 | > 0.064 µM | 0.983 | > 10.2 µM | 0.929 | > 10 µM | 0.927 | > 10.2 µM |  |  | 0.983 | > 5 µM |  | 
15 | SW1990 (pancreas, adherent) | 0.939 | > 0.5 µM | 0.909 | > 4000 µM | 0.836 | 0.0536 µM | 0.974 | > 10.2 µM | 0.972 | > 10 µM | 0.974 | > 10.2 µM | 0.985 | > 5.12 µM | 0.985 | > 5 µM |  | 
16 | VMRC-RCW (kidney, adherent) | 0.981 | > 0.5 µM | 0.894 | > 4000 µM | 0.885 | 0.0613 µM | 0.965 | > 10.2 µM |  |  | 0.976 | > 10.2 µM | 0.919 | > 5.12 µM |  |  |  | 
17 | no-10 (glioma, adherent, top dose 20 µM) |  |  |  |  |  |  |  |  |  |  |  |  |  |  |  |  | 0.973 | > 20 µM
18 | no-11 (glioma, adherent, top dose 20 µM) |  |  |  |  |  |  |  |  |  |  |  |  |  |  |  |  | 0.983 | > 20 µM
